Reference: the supplement of paper PMC4604168 (melanoma cell lines)
This is one part of the list. Many values rest on one well or one pass, so single values are uncertain.
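Also: cells treated in 1,536-well plates, then fixed and DAPI-stained, with nuclei counted from automated high-throughput microscope images.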

These compounds were tested on UACC62 (assay: cell count relative to DMSO control; melanoma cells; higher = more viable cells). Conditions: library dose: standard library concentration; 72 h.
Cc1ccc(NC(=O)c2cccc(N(C)C)c2)cc1NC(=O)c1ccc(O)cc1 + COc1ccc(-c2ccc3c(N4CCOCC4)nc(N4C[C@@H](C)O[C@@H](C)C4)nc3n2)cc1CO [KU0063794] (first compound 10 µM, partner dose 0.1 µM) was tested, and the cell count was 130%. NC(=O)c1ccc(N(C(N)=O)c2c(F)cccc2F)nc1-c1ccc(F)cc1F + CCN(CC)CCCCNc1ncc2cc(-c3cc(OC)cc(OC)c3)c(NC(=O)NC(C)(C)C)nc2n1 [PD173074] (first compound 2 µM, partner dose 0.5 µM) was tested, and the cell count was 105%. Compound CCCCCCCCc1ccc(CCC(N)(CO)CO)cc1 [fingolimod] + Oc1nc(-c2ccc(C(F)(F)F)cc2)nc2c1CSCC2 [XAV939] (first compound 10 µM, partner dose 10 µM) has a cell count of 41.9%. Compound NC(=O)c1ccc(N(C(N)=O)c2c(F)cccc2F)nc1-c1ccc(F)cc1F + COc1cc2ncnc(Nc3ccc(Oc4ccccc4)cc3)c2cc1OC [SrcI1] (first compound 2 µM, partner dose 10 µM) has a cell count of 60.8%. With CCCCCCCCc1ccc(CCC(N)(CO)CO)cc1 [fingolimod] + Oc1cc(-c2nc(-c3ccccc3)[nH]c2-c2ccncc2)ccc1Cl [L779450] (first compound 10 µM, partner dose 1 µM) the cell count was 22.5%. For NC(=O)c1ccc(N(C(N)=O)c2c(F)cccc2F)nc1-c1ccc(F)cc1F + Oc1cc(-c2nc(-c3ccccc3)[nH]c2-c2ccncc2)ccc1Cl [L779450] (first compound 2 µM, partner dose 1 µM), the cell count was 39%.
